# Experimental data as given in PMC4336329 (PLoS ONE, 2015).
# Hit rate of the full screen: of about 310,000 compounds, about 2,200 (0.71%) showed an effect of 50% or more. Effects have a minus sign here. This is one part of the list.
# Biological target: human ether-à-go-go-related gene (hERG) potassium channel (human, UniProt Q12809)
# Assay: primary screen, population patch clamp on CHO cells stably expressing hERG
# Sequence of human ether-à-go-go-related gene (hERG) potassium channel (Q12809 whole entry, looked up): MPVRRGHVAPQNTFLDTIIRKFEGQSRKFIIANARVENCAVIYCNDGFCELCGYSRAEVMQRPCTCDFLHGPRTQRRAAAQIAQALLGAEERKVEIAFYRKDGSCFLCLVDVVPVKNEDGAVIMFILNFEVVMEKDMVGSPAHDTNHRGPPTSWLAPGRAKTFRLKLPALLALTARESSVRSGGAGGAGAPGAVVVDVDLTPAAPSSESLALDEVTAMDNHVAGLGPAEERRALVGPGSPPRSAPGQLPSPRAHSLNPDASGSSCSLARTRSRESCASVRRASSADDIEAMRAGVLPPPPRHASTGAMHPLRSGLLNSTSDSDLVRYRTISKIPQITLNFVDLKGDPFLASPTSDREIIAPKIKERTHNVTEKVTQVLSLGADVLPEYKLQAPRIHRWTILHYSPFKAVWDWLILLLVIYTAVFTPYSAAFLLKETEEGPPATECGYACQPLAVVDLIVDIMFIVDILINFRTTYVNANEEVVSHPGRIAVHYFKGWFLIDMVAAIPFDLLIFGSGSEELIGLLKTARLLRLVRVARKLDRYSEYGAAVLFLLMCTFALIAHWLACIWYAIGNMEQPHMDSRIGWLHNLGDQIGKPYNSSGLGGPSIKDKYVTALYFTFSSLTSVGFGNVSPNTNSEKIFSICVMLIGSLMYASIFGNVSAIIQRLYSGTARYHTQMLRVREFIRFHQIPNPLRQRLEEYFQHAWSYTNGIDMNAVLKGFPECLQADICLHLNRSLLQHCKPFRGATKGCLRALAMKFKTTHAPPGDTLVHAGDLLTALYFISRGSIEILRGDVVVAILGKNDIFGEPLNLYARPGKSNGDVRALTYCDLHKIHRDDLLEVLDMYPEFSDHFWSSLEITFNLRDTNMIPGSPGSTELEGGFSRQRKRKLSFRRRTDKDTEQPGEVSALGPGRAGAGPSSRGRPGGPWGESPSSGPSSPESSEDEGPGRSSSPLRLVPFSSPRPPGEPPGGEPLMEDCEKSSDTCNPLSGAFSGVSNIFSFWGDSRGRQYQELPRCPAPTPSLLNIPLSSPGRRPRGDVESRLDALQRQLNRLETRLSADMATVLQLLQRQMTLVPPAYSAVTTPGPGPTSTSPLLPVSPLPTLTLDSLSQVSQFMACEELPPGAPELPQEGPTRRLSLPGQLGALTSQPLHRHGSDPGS
row,Structure (SMILES),"hERG current change (%, negative = inhibition) at 1uM [%]"
1,CCCCOc1ccc(S(=O)(=O)Nc2cc(OC)ccc2OC)cc1,15.7
2,O=C(OC1CCN(c2ncc(C(F)(F)F)cc2Cl)CC1)c1cccc(C(F)(F)F)c1,16.6
3,COc1ccc(OCC(=O)N/N=C/C=C/c2ccccc2)cc1,-4.98
4,Cc1cc(NC(=O)Cn2nnc3sc4c(c3c2=O)CCC(C(C)(C)C)C4)no1 (stereo not shown),4.19
5,O=Cc1ccc(OCc2cccc(C(F)(F)F)c2)cc1O,14.5
6,O=C(O)c1ccc(CNC(=O)c2ccc3c(c2)C(=O)N(Cc2cccnc2)C3=O)cc1,5.67
7,COC(=O)c1ccc(NC(=O)Cn2nc(C(=O)Nc3ccc(C)cc3)ccc2=O)cc1,10.8
8,CC(Sc1nnnn1C1CCCC1)C(=O)Nc1cccc(S(=O)(=O)N2CCOCC2)c1 (stereo not shown),4.97
9,COc1ccc(-c2noc(CNC(=O)C(C)Oc3ccccc3)n2)cc1 (stereo not shown),-1.42
10,Cc1ccc(C23CC4CC(CC(NC(=O)N5CCN(C)CC5)(C4)C2)C3)cc1,5.68
11,CO/N=C(/CS(=O)(=O)c1ccc(Br)cc1)c1ccc(OC)cc1,7.67
12,COc1ccc2nc(NC(=O)CSCC(=O)Nc3cc(C)on3)sc2c1,10.9
13,CC(C)C(C)(C#N)NC(=O)CSc1nc2scc(-c3ccccc3)c2c(=O)[nH]1 (stereo not shown),8.72
14,Nn1c(SCC(=O)Nc2ccc3c(c2)OCO3)nnc1-c1cccc(Cl)c1,-9.11
15,O=C(CCc1nnc2ccc(NCc3ccccc3Cl)nn12)NC1CCCC1,12.4
16,CCC(C)NC(=O)c1ccccc1SC (stereo not shown),7.27
17,COc1ccc(-n2cc(CNCCN3CCOC3=O)c(-c3ccccc3Cl)n2)cc1,4.69
18,O=C1c2ccccc2C(=O)N1CCC(O)C[N+](=O)[O-] (stereo not shown),17.3
19,Cn1c(=O)c2c(nc(NCCc3ccccc3)n2CC(=O)NCCc2ccccc2)n(C)c1=O,12.5
20,COc1cccc(NC(=O)CNC(=O)N2CC(=O)Nc3ccccc32)c1,6.61
21,COc1cccc(CNC(=O)CCCn2c(=S)[nH]c3cc4c(cc3c2=O)OCO4)c1,12.8
22,COc1ccc(C(=O)N2CCCC(Nc3ccc(F)cc3)C2)c(OC)c1 (stereo not shown),16.4
23,CCN1C(=O)c2cccc3c(NC(=O)c4ccc(OC)c(OC)c4)ccc1c23,-22.3
24,O=C(NCC1CCCO1)NC1CCCCC1 (stereo not shown),16.5
25,CC(=O)Nc1ccc(-c2nc3ccccc3o2)cc1,-2.43
26,Cc1cccn2cc(-c3cccc(S(=O)(=O)N4CCCCC4)c3)nc12,6.48
27,O=C(CCN1C(=O)c2ccccc2C1=O)NCc1ccccc1,8.97
28,CC(C)c1ccc2c(c1)C(N1CCNCC1)Cc1ccc(F)cc1S2.O.O=C(O)/C=C\C(=O)O (stereo not shown),13.7

row,Structure (SMILES),"hERG current change (%, negative = inhibition) at 1uM [%]"
1,O=C(CCOc1ccccc1)Nc1ccc([N+](=O)[O-])cc1,-18.3
2,CC(=O)c1cccc(OCC(=O)N(Cc2ccco2)c2c(N)n(Cc3ccccc3)c(=O)[nH]c2=O)c1,2.85
3,COc1cc(OC)cc(C(=O)NNC(=O)C2CSC3(C)CCC(=O)N23)c1 (stereo not shown),14.3
4,CCCCCCC(=O)N/N=C/c1c(O)n(C(C)CC)c(=S)[nH]c1=O (stereo not shown),9.66
5,Cc1cc(C)nc(SC2CCCCC2NS(=O)(=O)c2ccc(Cl)cc2)n1 (stereo not shown),9.14
6,O=C(Oc1ccc2c(-c3ccccc3)cc(=O)oc2c1)C1CCCCC1,10.3
7,Cc1noc(C)c1N=Nc1ccccc1C(=O)O,10.9
8,CC[C@H](C)[C@H](NC(=O)[C@H](Cc1ccc(O)cc1)NC(=O)[C@@H](N)C(C)C)C(=O)N[C@@H](Cc1cnc[nH]1)C(=O)N1CCC[C@H]1C(=O)N[C@@H](Cc1ccccc1)C(=O)O,6.63
9,CCO[C@@H]1OC(C(=O)N2CCOCC2)=C[C@H](C2CCCCC2)[C@H]1CCCO,15.9
10,CCOC(=O)c1csc(NC(=O)CSc2nnnn2-c2ccc(OC)c(OC)c2)n1,7.09
11,CC(=O)c1ccc(N2CCN(C(=O)/C=C/c3ccc(S(=O)(=O)N4CCOCC4)cc3)CC2)cc1,2.42
12,O=c1[nH]c(=O)n(-c2cc(Br)c(O)c(Br)c2)cc1Br,11.2
13,Cc1ccccc1C(=O)Nc1nnc(-c2ccc(F)cc2)o1,0.734
14,CSCCC(NS(=O)(=O)c1ccc(C)cc1)C(=O)NCC(C)(C)N1CCOCC1 (stereo not shown),4.69
15,CCc1noc(C)c1C(=O)NNC(=O)COc1cc(C)ccc1C,-10.1
16,Cc1cccc(-c2nnc3sc(-c4ccccc4)nn23)c1,-7.56
17,CC(=O)OCC12COC3c4ccccc4OC(C)(CC1C)C3C2C (stereo not shown),5.51
18,COc1ccc(Br)cc1S(=O)(=O)N1CCOCC1,0.9
19,CCN(CC)C(=O)c1ccc(NC(=O)Cn2nc(C)c3ccccc3c2=O)cc1,0.871
20,COc1ccc2c(c1)[nH]c1c(=O)n(Cc3ccccn3)cnc12,5.19
21,Cc1sc2ncnc(N[C@@H](CCC(=O)O)C(=O)O)c2c1C,10.8
22,COC(=O)c1sc(NC(=O)c2c(-c3ccccc3)noc2C)nc1C,16.4
23,COc1ccc(C)cc1NC(=O)C(CCS(C)(=O)=O)NC(C)=O (stereo not shown),15.4
24,COc1cc(N)c(Cl)cc1C(=O)OCC(=O)N1CCCCCC1,5.85
25,CNC(=O)NC(=O)CSc1nc2sccc2c(=O)n1-c1ccccc1,13.5
26,CCc1ccccc1OCCOc1ccc(C)cc1OC,10.7
27,CCCOc1ccc(CNC(=S)N/N=C/c2ccc([N+](=O)[O-])cc2)cc1,7.65
